Where a name gives a salt, the structure may show the parent alone. Whole data set: some 2,600 compounds, median “MBP+ mature oligodendrocyte number relative to DMSO vehicle control” near -0.34, cut for the highest 2% near 13. Some of the results follow.
These compounds were tested on jimpy (Plp1 jimpy) mouse iPSC-derived oligodendrocyte progenitor cells (assay: MBP+ mature oligodendrocyte number relative to DMSO vehicle control (SDs above negative control mean); higher = more surviving jimpy oligodendrocytes (rescue)). Conditions: 10 µM; 3 days.
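Note: 10 µM single dose with 3-day oligodendrocyte differentiation.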

| Structure (SMILES) | MBP+ mature oligodendrocyte number |
| --- | --- |
| CC(N)c1cccc(Cl)c1Cl (racemic) [(±)-2,3-Dichloro-alpha-methylbenzylamine hydrochloride] | -1.28 |
| Cc1sc2c(c1C)C(c1ccc(Cl)cc1)=N[C@@H](CC(=O)Nc1ccc(O)cc1)c1nnc(C)n1-2 | -4.64 |
| CCc1c(C(=O)C(N)=O)c2c(OCC(=O)O)cccc2n1Cc1ccccc1 | -1.55 |
| CCC1=C[C@H]2CN3CCc4c([nH]c5ccccc45)[C@](C(=O)OC)(C2)[C@H]13 [Catharanthine] | 0.422 |
| C#CCOC(=O)C1=CCCN(C)C1 [Arecaidine propargyl ester hydrobromide] | 0.824 |
| CNCC(O)c1ccc(O)cc1 (stereo unspecified) [Synephrine HCl] | -0.332 |
| CNCC(O)c1ccc(O)cc1 (stereo unspecified) [Synephrine] | 0.451 |
| CN1[C@@H]2CC[C@H]1C[C@@H](OC(=O)C(CO)c1ccccc1)C2 (stereo partly specified) [Atropine] | -1.28 |
| CN1[C@@H]2CC[C@H]1C[C@@H](OC(=O)C(CO)c1ccccc1)C2 (stereo partly specified) [Atropine sulfate] | 2.28 |
| CCOc1ccccc1-n1c(C(C)N2CCN(C(=O)COc3ccc(Cl)cc3)CC2)nc2ccccc2c1=O (stereo unspecified) [Erastin] | -0.0158 |
| CC(C)C[C@H]1C(=O)N2CCC[C@H]2[C@]2(O)O[C@](NC(=O)[C@@H]3C=C4c5cccc6[nH]c(Br)c(c56)C[C@H]4N(C)C3)(C(C)C)C(=O)N12 [(+)-Bromocriptine methanesulfonate] | -2.83 |
| COc1cc(C(O)CN)ccc1O (racemic) [(±)-Normetanephrine hydrochloride] | -1.19 |
| C[C@]12CCC(=O)C(O)=C1CC[C@@H]1[C@@H]2CC[C@]2(C)C(=O)CC[C@@H]12 [Formestane] | -0.276 |
| c1ccc(C2CC2)c(OCC2=NCCN2)c1 [Cirazoline hydrochloride] | 1.13 |
| CN1[C@@H]2CC[C@H]1C[C@@H](OC(c1ccccc1)c1ccccc1N)C2 (stereo partly specified) [Aminobenztropine] | -0.825 |
| N#C[C@H](O[C@@H]1O[C@H](C(=O)O)[C@@H](O)[C@H](O)[C@H]1O)c1ccccc1 [Laetrile] | 1.29 |
| NCC(CP(=O)(O)O)c1ccc(Cl)cc1 (stereo unspecified) [Phaclofen] | 1.11 |
| O=S1(=O)N(CCN2CC=C(c3c[nH]c4cc(F)ccc34)CC2)c2cccc3c2N1CCC3 | 3.87 |
| CCN(CC)C(=O)c1ccc(C2=CC3(CCNCC3)Oc3cccc(O)c32)cc1 | -0.676 |
| CN1[C@@H]2C[C@@H](OC(=O)[C@H](CO)c3ccccc3)C[C@H]1[C@H](O)C2 (racemic) [(+/-)-Anisodamine] | -1.33 |
| Clc1ccc(N2CCN(Cc3c[nH]c4ncccc34)CC2)cc1 [L-745,870 hydrochloride] | -3.38 |
